According to ChEMBL document CHEMBL4888484, “Replenishing the malaria drug discovery pipeline: Screening and hit evaluation of the MMV Hit Generation Library 1 (HGL1) against asexual blood stage Plasmodium falciparum ,using a nano luciferase reporter read-out” (2022):
The whole screen tested about 150,000 compounds, of which about 540 (0.36%) showed an effect of 50% or more. The list shows a part of the results.

System: Plasmodium falciparum
Assay: Primary screen in NF54 nanoGlo assay, in single point, at 2uM, 72h; a lower Z score goes with more inhibition
Format: functional, Erythrocyte
Conditions: timepoint 72 hour

SMILES	% Inhibition [%]	Z score
Cc1noc(CN[C@H](c2nc(C3CC3)no2)C(C)C)n1	-7	1.05
CC(C(=O)N1CCCC1C1CCCN1C)n1cccn1 (stereo unspecified)	10	-1.39
COc1ncccc1C(=O)N1CC[C@H]2[C@H](CCC(=O)N2CCc2c[nH]cn2)C1	-8	1.61
CNC(=O)CN1c2ccccc2C(=O)N(C)[C@@H]1c1cccc(NC(=O)c2ccccc2Cl)c1	-7	0.62
COc1cccc(CN2CC[C@H](CO)[C@H](NC(=O)c3cccnc3)C2)n1	-9	1.21
CN1CCNC(=O)C[C@@H]2CN(C(=O)Cc3ccc(Cl)c(Cl)c3)C[C@@H]2n2cc(nn2)Cn2cccc(c2=O)C1=O	0	0.05
CC(=O)Nc1ccc(S(=O)(=O)NCc2nccc(N(C)C)n2)cc1	-2	0.37
COc1ccc2c(c1)[C@@H](NC(=O)c1ccn(C(F)F)n1)CC(C)(C)O2	0	-0.01
Cc1cnc(C(=O)NC(c2ccc(F)cc2F)[C@H]2C[C@@H](O)C2)cn1 (stereo partly specified)	12	-1.62
Cc1ccn2c(NC(=O)c3cccc(S(=O)(=O)N4CCOCC4)c3)c(-c3ccccc3)nc2c1	-29	3.4
CCN1C(=O)C(C)(C)N[C@@H]1c1conc1C	-1	0.16
CCC(=O)N1CC[C@H](c2nc(-c3ccc(N4CCCCC4)nc3)no2)C1	-8	0.88
Cc1ncc(CO)c(CN2CCc3[nH]cnc3[C@@H]2c2ccsc2)c1O	-8	1.2
CC1=NO[C@](C)(C(=O)N2CCC(CNC(=O)CCc3cccnc3)CC2)C1	-2	0.25
COCCn1nc2n(c1=O)CCN(Cc1cccc(C#N)c1)CC2	-19	2.43
C1CCC(CCc2nc([C@H]3CCOC3)no2)CC1	-6	1.09
CCCCN(CC)c1ccc(-c2nc(-c3ccc(F)cc3)no2)cn1	-11	1.21
CC1CC(O)CN1C(=O)c1cc(C(N)=O)cs1 (stereo unspecified)	-5	0.99
CCCCc1nc(CNCCn2cccn2)no1	-11	1.14
O=C1NC[C@@]2(CCCN(Cc3ccccc3OCCCn3ccnc3)C2)O1	-15	3
Cc1cc(CN(CC(=O)O)Cc2ccc(Cl)s2)on1	-2	0.29
O=C(NCCC(=O)N1CCCCCC1)c1cc(Cl)c2c(c1)OCCCO2	30	-0.44
O=C(CN1C(=O)CNC1=O)NCc1ccc(Cl)s1	6	-0.73
O=C(CC1NC(=O)NC1=O)NC1CCCCC1Cc1ccccc1 (stereo unspecified)	7	-0.96
CCCc1[nH]ncc1C(=O)OCc1cn2ccccc2c1C#N	4	-0.53
Cn1c(=O)[nH]c(=O)c2nc(C[C@H](O)c3ccc(Cl)cc3)c(O)nc21	-4	0.53
O=C(C[C@H]1CCCO1)NCC(F)(F)C(F)F	3	-0.45

SMILES	% Inhibition [%]	Z score
N#Cc1cccc(OCCN2CCCC[C@H]2C(=O)N2CCOCC2)c1	-1	0.12
C=CCCCC(C)NC(=O)N1CCC(S(C)(=O)=O)C1 (stereo unspecified)	-7	1.04
CCCCn1c(N)c(N(Cc2nc3ccccc3o2)CC(C)C)c(=O)[nH]c1=O	-25	3.95
CCOCC(=O)N1CCC2C(CCCN2C(=O)c2cc(OC)n(C)n2)C1 (stereo unspecified)	20	-2.54
O=C(NCC(F)(F)F)c1cnc(OC2CCOCC2)c(Cl)c1	-4	0.82
CN1C(=O)CCC(C(=O)Nc2ccnc3ccnn23)C1c1ccccc1 (stereo unspecified)	-11	1.59
Cc1cccc([C@H](C)NS(=O)(=O)c2ccnn2C(C)C)n1	-3	0.56
Cc1cc(C)c(C)c(C(=O)NC[C@H](O)c2nccn2C)c1C	10	-1.32
CN1CC(=O)N[C@@H]2CN(C(=O)CCCn3cncn3)CC[C@@H]2OCc2cccc(c2)Oc2cccc(c2)CCC1=O	-1	0.15
Cc1cc(N(C)C)ccc1CNC(=O)C(=O)Nc1cccc(C(N)=O)n1	-10	0.99
CCCCNC(=O)N1CC(C(=O)Nc2ccc(OC)cc2OC)CCC1c1ccc(F)c(C)c1 (stereo unspecified)	-3	0.35
COc1cc(OC)cc(C(C(=O)O)N2CC(C)C(F)(F)C(C)C2)c1 (stereo unspecified)	-20	2.17
CCN1CC[C@H](CN(C)Cc2cccc3cc[nH]c23)C1	-7	1.12
COc1ccc2c(C)nc(N3CCC(CCN4CCCC4)CC3)nc2c1	-6	0.72
C[C@H]1CN(Cc2c(F)cncc2F)CC(=O)N1	4	-0.42
CN(Cc1nccn1C)c1ncnc2sc(-c3ccccc3)cc12	-10	1.47
CCCC[C@H](CC)CNC(=O)c1cncn1-c1ccc(-c2c(OC)cccc2OC)cc1	-16	1.58
O=C(CCc1ccc(F)c(F)c1)N1C[C@@H](CN2CCCCC2)[C@@H](CO)C1	-10	1.64
Cc1nc(CC(=O)N(C)CC(C)(CO)CO)c(C)s1	-6	0.71
Cc1ccc([C@H](CNC(=O)c2ccc(Cl)cc2)N2CCC(C)CC2)o1	-8	1.38
CCc1cccc(NC(=O)Cn2nc(N3CCC(C)CC3)c3ccccc3c2=O)c1	-12	1.85
O=C(CCn1cnnn1)N1C[C@@H]2CC[C@H]1CN(Cc1ccc(F)cc1)C2	3	-0.41
CCOC(=O)[C@H]1CCCN(C(=O)c2coc(CN(Cc3cccc(C)c3)Cc3ccc4c(c3)OCO4)n2)C1	-1	0.08
CCn1cnnc1NC(=O)c1cc(C)sn1	1	-0.12
COC1CCN(CCCOc2cccc(C#N)c2)C(CNC(=O)OC(C)(C)C)C1 (stereo unspecified)	-11	0.96
O=C1NCCC[C@@H]1Nc1ccc(C(F)(F)F)nn1	30	-4.41
